± gives the standard deviation of the averaged measurements. The full ranking holds about 33,000 sequences; the median of “E-score (dimensionless, -0.5 to 0.5)” is about -0.049, and the highest 2% start at about 0.37. Some of the results follow.
Tested on: T1, PmTbr T-box DNA-binding domain (GST fusion)
T1 sequence: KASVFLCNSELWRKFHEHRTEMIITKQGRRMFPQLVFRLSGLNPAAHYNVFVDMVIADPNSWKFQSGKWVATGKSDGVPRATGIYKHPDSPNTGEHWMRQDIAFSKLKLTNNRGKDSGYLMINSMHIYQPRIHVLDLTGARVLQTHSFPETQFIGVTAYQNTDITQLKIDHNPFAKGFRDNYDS
Assay: PBM E-score of 8-mer (E-score (dimensionless, -0.5 to 0.5)); Tbr is Tbrain of the sea star Patiria miniata (Pm) or the sea urchin Strongylocentrotus purpuratus (Sp); higher = stronger binding preference; most listed sequences are background and not binding sites
Conditions: the construct has about 5 more residues each side
In short: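 Using the Universal PBM Analysis Suite, every ungapped 8-mer received an enrichment E-score averaged over duplicate arrays. Probe intensities came from double-stranded Universal Agilent oligonucleotide arrays incubated with 200 nM GST-fused Tbr T-box DNA-binding domain in PBS (pH 7.5). That protein was expressed in BL21 E. coli at 20 °C and purified by glutathione affinity chromatography.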

Row | Sequence | PBM E-score of 8-mer
1 | CATGCAAG | 0.0255 ± 0.013
2 | ATGGTGGC | 0.271 ± 0.056
3 | GAGTCATA | -0.223 ± 0.038
4 | ATATTTAC | -0.0829 ± 0.0039
5 | GGAACGGA | 0.133 ± 0.013
6 | AAAAGTGA | 0.197 ± 0.059
7 | CGCCTACA | 0.14 ± 0.016
8 | AGTAACAA | 0.167 ± 0.0063
9 | GCACGCAA | -0.0192 ± 0.0044
10 | CGCCTAGC | 0.216 ± 0.011
11 | GGAATATA | -0.235 ± 0.045
12 | CTACAGAG | -0.187 ± 0.022
13 | AGTCTTGA | -0.0572 ± 0.011
14 | AACTGGAC | 0.0168 ± 0.033
15 | ATACGCAA | 0.00573 ± 0.041
16 | ACTGGGGA | -0.0346 ± 0.062
17 | CGATTCAC | 0.143 ± 0.0046
18 | AAGAAGCG | 0.121 ± 0.037
19 | AGGACACG | -0.0089 ± 0.017
20 | AATTATCA | 0.102 ± 0.075
21 | AATAAGCA | -0.084 ± 0.011
22 | GAACGAGC | -0.256 ± 0.017
23 | AGGGTCGC | 0.166 ± 0.034
24 | CCGGGCTC | -0.282 ± 0.041
25 | ACGCCAAG | 0.0568 ± 0.02

Row | Sequence | PBM E-score of 8-mer
26 | GCGGGAAC | 0.159 ± 0.063
27 | GATGGTGA | 0.199 ± 0.0021
28 | CCCACCAC | -0.0276 ± 0.048
29 | GACTGCGA | 0.191 ± 0.012
30 | AACCTCCA | -0.158 ± 0.028
31 | CGCTGGAG | -0.141 ± 0.049
32 | CACGAACG | 0.178 ± 0.029
33 | CTAACGTC | -0.175 ± 0.038
34 | GAGTGACA | 0.373 ± 0.017
35 | GAGGACTA | -0.333 ± 0.0069
36 | ACCGCCTG | 0.077 ± 0.11
37 | ATCTACCA | -0.0473 ± 0.051
38 | ATGCCTAA | 0.0145 ± 0.021
39 | GCTGCTGA | -0.119 ± 0.044
40 | AGAAAGAA | -0.238 ± 0.064
41 | ATTTTTCC | 0.00112 ± 0.058
42 | CTGGAAGA | -0.211 ± 0.047
43 | AACCCCAG | -0.401 ± 0.0055
44 | AACTGCGA | 0.312 ± 0.018
45 | AACCCCCG | 0.0146 ± 0.0046
46 | TCATTCGA | -0.143 ± 0.026
47 | TAGATAGA | -0.177 ± 0.0018
48 | AAACCGGG | -0.1665 ± 0.00043
49 | CCAACGCC | 0.225 ± 0.04
50 | ATTGCAAC | -0.043 ± 0.047

Row | Sequence | PBM E-score of 8-mer
51 | CAAGCTGG | 0.215 ± 0.0055
52 | CTAGTTCA | 0.0311 ± 0.029
53 | AGGGATAG | -0.192 ± 0.068
54 | AGATCGGC | -0.244 ± 0.013
55 | CTTTTTGC | 0.00834 ± 0.022
56 | AGATGTAG | -0.1996 ± 0.00023
57 | TACTGATA | -0.123 ± 0.0055
58 | AGTCACAC | 0.462 ± 0.0029
59 | GCGCGTAA | 0.176 ± 0.0068
60 | ATTTAGAC | -0.155 ± 0.022
61 | AAAGAACC | -0.217 ± 0.067
62 | AAAGGCCT | -0.237 ± 0.025
63 | GCAGCGTA | -0.0821 ± 0.013
64 | AACTTTCA | -0.00477 ± 0.064
65 | GCTCTCCA | -0.163 ± 0.016
66 | CTGACCGA | -0.0732 ± 0.0037
67 | ACGGAGAC | -0.194 ± 0.015
68 | GCTAGCGA | 0.21 ± 0.021
69 | ACAAAGCG | 0.0603 ± 0.0036
70 | GATTAACA | 0.306 ± 0.03
71 | ACCGAACC | -0.043 ± 0.11
72 | ATGCTAGA | -0.158 ± 0.055
73 | GGCGTATA | -0.00473 ± 0.058
74 | AAGTTATA | 0.0895 ± 0.029
75 | ACAGCCGT | 0.0773 ± 0.041

Row | Sequence | PBM E-score of 8-mer
76 | CGTAGGAA | -0.0196 ± 0.14
77 | AGTTTCGA | -0.2209 ± 0.0018
78 | CCATTGGC | -0.153 ± 0.012
79 | ATTAGCAG | 0.129 ± 0.045
80 | TCGCGCCA | 0.366 ± 0.018
81 | ATTACTAC | -0.0718 ± 0.035
82 | TCATTAGA | -0.129 ± 0.032
83 | AGACCTGG | -0.3082 ± 0.0015
84 | ATGGATGG | -0.25357 ± 0.00023
85 | CGGCTCGA | 0.0408 ± 0.024
86 | ATTACCGG | -0.178 ± 0.031
87 | CATCCTGG | -0.0719 ± 0.003
88 | TCTAGTAA | -0.223 ± 0.027
89 | ACTCGGGC | -0.0948 ± 0.016
90 | GATGCACA | -0.0216 ± 0.037
91 | GTTGTCGA | 0.241 ± 0.021
92 | ATTTCCCC | -0.183 ± 0.023
93 | AGCACATA | 0.222 ± 0.014
94 | ATGATGTA | -0.137 ± 0.0031
95 | ATGCTTTC | 0.0507 ± 0.0053
96 | ACGGACCG | -0.0149 ± 0.045
97 | GAACTTGA | -0.136 ± 0.051
98 | GGTATTTA | -0.211 ± 0.061
99 | AAAAGAAG | -0.193 ± 0.03
100 | CTATAGAA | -0.129 ± 0.058

Row | Sequence | PBM E-score of 8-mer
101 | GATGATCC | -0.0862 ± 0.048
102 | AGGTGGTG | 0.385 ± 0.042
103 | CTAACCGC | 0.0244 ± 0.035
104 | CCGGAGAG | -0.158 ± 0.048
105 | ATCGTAGA | -0.172 ± 0.016
106 | CTAACTCC | -0.0973 ± 0.039
107 | TTATCGAA | -0.0452 ± 0.0066
108 | CTTACGTA | -0.1098 ± 0.00089
109 | AACGAAAA | -0.172 ± 0.019
110 | AACGAGAA | -0.0662 ± 0.0045
111 | TAGTCGGA | -0.1819 ± 0.00083
112 | ACCCGAGT | -0.0549 ± 0.0084
113 | ATAAGAAA | -0.172 ± 0.1
114 | ACTAACCG | -0.0963 ± 0.013
115 | TACCTACA | -0.2971 ± 0.00036
116 | AACTTTCC | -0.105 ± 0.06
117 | ATATCTCC | -0.1611 ± 0.0007
118 | GTGAAGAA | 0.223 ± 0.021
119 | ATGGACAG | -0.212 ± 0.057
120 | AGGTGCAA | 0.4484 ± 0.0012
121 | GTCGAGAA | 0.0517 ± 0.025
122 | CCCCAAAG | -0.0097 ± 0.076
123 | GGAAATCA | -0.0612 ± 0.068
124 | CAACGAAG | -0.0866 ± 0.054
125 | ATATGTTG | 0.0196 ± 0.038

Row | Sequence | PBM E-score of 8-mer
126 | AAGGCCAG | -0.128 ± 0.024
127 | AGCGTACT | -0.132 ± 0.029
128 | CTACCAAG | -0.0639 ± 0.025
129 | TACTTGAA | -0.262 ± 0.037
130 | GCAGTACA | -0.187 ± 0.06
131 | AGGGCGGG | -0.0505 ± 0.059
132 | AGACCAAT | -0.169 ± 0.044
133 | GGATTACA | -0.0414 ± 0.012
134 | ACACACAC | 0.281 ± 0.029
135 | CGAGAATA | -0.108 ± 0.11
136 | CATCGGCA | -0.0492 ± 0.0013
137 | CATCTTGG | -0.12 ± 0.063
138 | AGTGATAT | 0.22 ± 0.034
139 | CGAAGTAC | -0.215 ± 0.04
140 | GAAGGGGC | -0.0956 ± 0.061
141 | TGAGAACA | 0.302 ± 0.0062
142 | ATCCGCTC | -0.151 ± 0.024
143 | AAACGCGA | 0.123 ± 0.011
144 | GTCGCGTA | 0.0036 ± 0.036
145 | ATCGCCAT | -0.0445 ± 0.069
146 | AAGCGAGT | -0.184 ± 0.018
147 | ACTTATAG | 0.0221 ± 0.063
148 | ATAAAGAC | -0.265 ± 0.06
149 | ATTAAAAG | -0.18 ± 0.078
150 | AATAGAGG | -0.0466 ± 0.021

Row | Sequence | PBM E-score of 8-mer
151 | ATCTTACG | -0.191 ± 0.0052
152 | AAGTTTGG | -0.143 ± 0.031
153 | CCGCCGAG | -0.088 ± 0.026
154 | AACTGCGG | -0.0835 ± 0.035
155 | CGACAACG | 0.253 ± 0.015
156 | ATTAACGA | 0.0284 ± 0.0082
157 | AACATGTC | 0.0456 ± 0.014
158 | GACAGACA | 0.162 ± 0.01
159 | ATTATCTG | 0.018 ± 0.036
160 | CTGGAGGC | -0.115 ± 0.0062
161 | AGTTTATC | 0.00368 ± 0.075
162 | CTTTGCCA | 0.0404 ± 0.032
163 | ATTGCGGC | -0.05796 ± 0.00038
164 | ATTCGGGA | -0.206 ± 0.0048
165 | CCATCGTA | -0.139 ± 0.024
166 | AATTCTTA | -0.0772 ± 0.14
167 | CCCGGGAA | 0.0439 ± 0.1
168 | ACCGCAAA | -0.222 ± 0.011
169 | CATTGACG | 0.0782 ± 0.033
170 | CCGTAGCA | -0.0821 ± 0.057
171 | GAACGAAA | -0.125 ± 0.04
172 | AGGTTAAC | 0.0272 ± 0.035

Source: the supplement of paper PMC4166925
